This sample is rich in variants without activity.
B1: glmS ribozyme (parent)
chain: AUAAAAGCGCCAGAACUACAGAAAUGUAGUUGACGAGGAGGAGGUUUAUCGAAUUUUCGGCGGAUGCCUCCAAA

Assays:
Conditions in all cases: with glucosamine-6-phosphate
glucosamine-6-phosphate [1] = variants of: B1; assay: kcat; higher = faster cleavage; RNA array
Procedure, shortened: (§1)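 E. coli RNA polymerase transcribed barcoded ribozyme variants in situ on sequenced MiSeq chips, which were tracked via a hybridised Cy3 probe at 37 °C. Tiles were imaged over ~14 h after glucosamine-6-phosphate (40 μM to 10 mM) in HEPES/KCl/Mg(OAc)2 buffer was flowed in. Normalised per-tile medians were fit to one- or two-exponential decays for kobs, and kcat and KM came from weighted Michaelis–Menten fits.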

glucosamine-6-phosphate [2] = variants of: B1; assay: self-cleavage kobs at 40 uM GlcN6P; higher = faster cleavage; RNA array
Procedure, shortened: as §1

glucosamine-6-phosphate [3] = variants of: B1; assay: self-cleavage kobs at 640 uM GlcN6P; higher = faster cleavage; RNA array
Procedure, shortened: as §1

glucosamine-6-phosphate [4] = variants of: B1; assay: self-cleavage kobs at 10000 uM GlcN6P; higher = faster cleavage; RNA array
Procedure, shortened: as §1

glucosamine-6-phosphate [5] = variants of: B1; assay: self-cleavage kobs at 160 uM GlcN6P; higher = faster cleavage; RNA array
Procedure, shortened: as §1

glucosamine-6-phosphate [6] = variants of: B1; assay: self-cleavage kobs at 2500 uM GlcN6P; higher = faster cleavage; RNA array
Procedure, shortened: as §1

## G13U A48G
glucosamine-6-phosphate [1]
  kcat: < 1e-05 s⁻¹
glucosamine-6-phosphate [2]
  self-cleavage kobs at 40 uM GlcN6P: < 1e-05 s⁻¹
glucosamine-6-phosphate [3]
  self-cleavage kobs at 640 uM GlcN6P: < 1e-05 s⁻¹
glucosamine-6-phosphate [4]
  self-cleavage kobs at 10000 uM GlcN6P: < 1e-05 s⁻¹

## C10A C34G C67G C70U
glucosamine-6-phosphate [1]
  kcat: < 1e-05 s⁻¹

## A14U G38U
glucosamine-6-phosphate [1]
  kcat: < 1e-05 s⁻¹
glucosamine-6-phosphate [3]
  self-cleavage kobs at 640 uM GlcN6P: < 1e-05 s⁻¹

## A14G G38C
glucosamine-6-phosphate [1]
  kcat: < 1e-05 s⁻¹
glucosamine-6-phosphate [5]
  self-cleavage kobs at 160 uM GlcN6P: < 1e-05 s⁻¹

## C11G G29C
glucosamine-6-phosphate [1]
  kcat: < 1e-05 s⁻¹
glucosamine-6-phosphate [4]
  self-cleavage kobs at 10000 uM GlcN6P: < 1e-05 s⁻¹

## G29A U30A U69A
glucosamine-6-phosphate [1]
  kcat: < 1e-05 s⁻¹
glucosamine-6-phosphate [4]
  self-cleavage kobs at 10000 uM GlcN6P: < 1e-05 s⁻¹

## A6U U65C
glucosamine-6-phosphate [1]
  kcat: < 1e-05 s⁻¹
glucosamine-6-phosphate [2]
  self-cleavage kobs at 40 uM GlcN6P: < 1e-05 s⁻¹
glucosamine-6-phosphate [3]
  self-cleavage kobs at 640 uM GlcN6P: < 1e-05 s⁻¹

## C10G A15G A52G
glucosamine-6-phosphate [1]
  kcat: < 1e-05 s⁻¹
glucosamine-6-phosphate [3]
  self-cleavage kobs at 640 uM GlcN6P: < 1e-05 s⁻¹

## C58U G66U
glucosamine-6-phosphate [1]
  kcat: < 1e-05 s⁻¹

## A14C G38A
glucosamine-6-phosphate [1]
  kcat: < 1e-05 s⁻¹
glucosamine-6-phosphate [2]
  self-cleavage kobs at 40 uM GlcN6P: < 1e-05 s⁻¹
glucosamine-6-phosphate [5]
  self-cleavage kobs at 160 uM GlcN6P: < 1e-05 s⁻¹

## C50A G60U
glucosamine-6-phosphate [1]
  kcat: < 1e-05 s⁻¹
glucosamine-6-phosphate [3]
  self-cleavage kobs at 640 uM GlcN6P: < 1e-05 s⁻¹

## C50A G60A
glucosamine-6-phosphate [1]
  kcat: < 1e-05 s⁻¹

## A33C U56G C68U
glucosamine-6-phosphate [1]
  kcat: < 1e-05 s⁻¹
glucosamine-6-phosphate [4]
  self-cleavage kobs at 10000 uM GlcN6P: < 1e-05 s⁻¹

## A6U U57A
glucosamine-6-phosphate [1]
  kcat: < 1e-05 s⁻¹
glucosamine-6-phosphate [2]
  self-cleavage kobs at 40 uM GlcN6P: < 1e-05 s⁻¹
glucosamine-6-phosphate [5]
  self-cleavage kobs at 160 uM GlcN6P: < 1e-05 s⁻¹

## G9U A48C C50G
glucosamine-6-phosphate [1]
  kcat: < 1e-05 s⁻¹
glucosamine-6-phosphate [3]
  self-cleavage kobs at 640 uM GlcN6P: < 1e-05 s⁻¹

## G29A G38C C70U
glucosamine-6-phosphate [1]
  kcat: < 1e-05 s⁻¹
glucosamine-6-phosphate [5]
  self-cleavage kobs at 160 uM GlcN6P: < 1e-05 s⁻¹

## G32C G37A
glucosamine-6-phosphate [1]
  kcat: < 1e-05 s⁻¹
glucosamine-6-phosphate [2]
  self-cleavage kobs at 40 uM GlcN6P: < 1e-05 s⁻¹
glucosamine-6-phosphate [5]
  self-cleavage kobs at 160 uM GlcN6P: < 1e-05 s⁻¹

## G40U G51U
glucosamine-6-phosphate [1]
  kcat: < 1e-05 s⁻¹
glucosamine-6-phosphate [2]
  self-cleavage kobs at 40 uM GlcN6P: < 1e-05 s⁻¹

## A42C U56G
glucosamine-6-phosphate [1]
  kcat: < 1e-05 s⁻¹
glucosamine-6-phosphate [2]
  self-cleavage kobs at 40 uM GlcN6P: < 1e-05 s⁻¹
glucosamine-6-phosphate [3]
  self-cleavage kobs at 640 uM GlcN6P: < 1e-05 s⁻¹
glucosamine-6-phosphate [5]
  self-cleavage kobs at 160 uM GlcN6P: < 1e-05 s⁻¹

## U49A C67G
glucosamine-6-phosphate [1]
  kcat: < 1e-05 s⁻¹

## A39G G63A
glucosamine-6-phosphate [1]
  kcat: < 1e-05 s⁻¹
glucosamine-6-phosphate [2]
  self-cleavage kobs at 40 uM GlcN6P: < 1e-05 s⁻¹
glucosamine-6-phosphate [3]
  self-cleavage kobs at 640 uM GlcN6P: < 1e-05 s⁻¹
glucosamine-6-phosphate [4]
  self-cleavage kobs at 10000 uM GlcN6P: < 1e-05 s⁻¹

## G44C C50A
glucosamine-6-phosphate [1]
  kcat: < 1e-05 s⁻¹
glucosamine-6-phosphate [2]
  self-cleavage kobs at 40 uM GlcN6P: < 1e-05 s⁻¹
glucosamine-6-phosphate [3]
  self-cleavage kobs at 640 uM GlcN6P: < 1e-05 s⁻¹
glucosamine-6-phosphate [6]
  self-cleavage kobs at 2500 uM GlcN6P: < 1e-05 s⁻¹

## C10A A52G
glucosamine-6-phosphate [1]
  kcat: < 1e-05 s⁻¹
glucosamine-6-phosphate [2]
  self-cleavage kobs at 40 uM GlcN6P: < 1e-05 s⁻¹

## A14U C61U
glucosamine-6-phosphate [1]
  kcat: < 1e-05 s⁻¹
glucosamine-6-phosphate [2]
  self-cleavage kobs at 40 uM GlcN6P: < 1e-05 s⁻¹

## C10G C61G
glucosamine-6-phosphate [1]
  kcat: < 1e-05 s⁻¹
glucosamine-6-phosphate [4]
  self-cleavage kobs at 10000 uM GlcN6P: < 1e-05 s⁻¹

## A33U C68A
glucosamine-6-phosphate [1]
  kcat: < 1e-05 s⁻¹
glucosamine-6-phosphate [2]
  self-cleavage kobs at 40 uM GlcN6P: < 1e-05 s⁻¹
glucosamine-6-phosphate [5]
  self-cleavage kobs at 160 uM GlcN6P: < 1e-05 s⁻¹
glucosamine-6-phosphate [4]
  self-cleavage kobs at 10000 uM GlcN6P: < 1e-05 s⁻¹

## A33U C68G
glucosamine-6-phosphate [1]
  kcat: < 1e-05 s⁻¹
glucosamine-6-phosphate [2]
  self-cleavage kobs at 40 uM GlcN6P: < 1e-05 s⁻¹

## G37U U55G
glucosamine-6-phosphate [1]
  kcat: < 1e-05 s⁻¹
glucosamine-6-phosphate [2]
  self-cleavage kobs at 40 uM GlcN6P: < 1e-05 s⁻¹

## A15U G60A
glucosamine-6-phosphate [1]
  kcat: < 1e-05 s⁻¹
glucosamine-6-phosphate [2]
  self-cleavage kobs at 40 uM GlcN6P: < 1e-05 s⁻¹

## A33G G38U
glucosamine-6-phosphate [1]
  kcat: < 1e-05 s⁻¹
glucosamine-6-phosphate [4]
  self-cleavage kobs at 10000 uM GlcN6P: < 1e-05 s⁻¹

## G32U C61A C70U
glucosamine-6-phosphate [1]
  kcat: < 1e-05 s⁻¹

## C11U G13C
glucosamine-6-phosphate [1]
  kcat: < 1e-05 s⁻¹
glucosamine-6-phosphate [5]
  self-cleavage kobs at 160 uM GlcN6P: < 1e-05 s⁻¹

## A12G A33C
glucosamine-6-phosphate [1]
  kcat: < 1e-05 s⁻¹

## C10U A39C
glucosamine-6-phosphate [1]
  kcat: < 1e-05 s⁻¹
glucosamine-6-phosphate [3]
  self-cleavage kobs at 640 uM GlcN6P: < 1e-05 s⁻¹
glucosamine-6-phosphate [5]
  self-cleavage kobs at 160 uM GlcN6P: < 1e-05 s⁻¹

## U47A C61A
glucosamine-6-phosphate [1]
  kcat: < 1e-05 s⁻¹

## G59A C61G
glucosamine-6-phosphate [1]
  kcat: < 1e-05 s⁻¹
glucosamine-6-phosphate [4]
  self-cleavage kobs at 10000 uM GlcN6P: < 1e-05 s⁻¹

## G59A C61U
glucosamine-6-phosphate [1]
  kcat: < 1e-05 s⁻¹
glucosamine-6-phosphate [2]
  self-cleavage kobs at 40 uM GlcN6P: < 1e-05 s⁻¹
glucosamine-6-phosphate [3]
  self-cleavage kobs at 640 uM GlcN6P: < 1e-05 s⁻¹
glucosamine-6-phosphate [4]
  self-cleavage kobs at 10000 uM GlcN6P: < 1e-05 s⁻¹

## C10A G32A
glucosamine-6-phosphate [1]
  kcat: < 1e-05 s⁻¹
glucosamine-6-phosphate [2]
  self-cleavage kobs at 40 uM GlcN6P: < 1e-05 s⁻¹
glucosamine-6-phosphate [3]
  self-cleavage kobs at 640 uM GlcN6P: < 1e-05 s⁻¹

## C10A A15G
glucosamine-6-phosphate [1]
  kcat: < 1e-05 s⁻¹
glucosamine-6-phosphate [5]
  self-cleavage kobs at 160 uM GlcN6P: < 1e-05 s⁻¹

## G29U G60C
glucosamine-6-phosphate [1]
  kcat: < 1e-05 s⁻¹
glucosamine-6-phosphate [3]
  self-cleavage kobs at 640 uM GlcN6P: < 1e-05 s⁻¹

## A36G A39U
glucosamine-6-phosphate [1]
  kcat: < 1e-05 s⁻¹
glucosamine-6-phosphate [5]
  self-cleavage kobs at 160 uM GlcN6P: < 1e-05 s⁻¹

## A33U C61A
glucosamine-6-phosphate [1]
  kcat: < 1e-05 s⁻¹
glucosamine-6-phosphate [4]
  self-cleavage kobs at 10000 uM GlcN6P: < 1e-05 s⁻¹

## C58U A64U
glucosamine-6-phosphate [1]
  kcat: < 1e-05 s⁻¹
glucosamine-6-phosphate [3]
  self-cleavage kobs at 640 uM GlcN6P: < 1e-05 s⁻¹

## G7U U54A U57A
glucosamine-6-phosphate [1]
  kcat: < 1e-05 s⁻¹
glucosamine-6-phosphate [5]
  self-cleavage kobs at 160 uM GlcN6P: < 1e-05 s⁻¹
glucosamine-6-phosphate [4]
  self-cleavage kobs at 10000 uM GlcN6P: < 1e-05 s⁻¹

## U56A G63A
glucosamine-6-phosphate [1]
  kcat: < 1e-05 s⁻¹
glucosamine-6-phosphate [2]
  self-cleavage kobs at 40 uM GlcN6P: < 1e-05 s⁻¹
glucosamine-6-phosphate [3]
  self-cleavage kobs at 640 uM GlcN6P: < 1e-05 s⁻¹
glucosamine-6-phosphate [5]
  self-cleavage kobs at 160 uM GlcN6P: < 1e-05 s⁻¹

## U31C G38C
glucosamine-6-phosphate [1]
  kcat: < 1e-05 s⁻¹
glucosamine-6-phosphate [2]
  self-cleavage kobs at 40 uM GlcN6P: < 1e-05 s⁻¹
glucosamine-6-phosphate [5]
  self-cleavage kobs at 160 uM GlcN6P: < 1e-05 s⁻¹

## G37U U56C
glucosamine-6-phosphate [1]
  kcat: < 1e-05 s⁻¹
glucosamine-6-phosphate [2]
  self-cleavage kobs at 40 uM GlcN6P: < 1e-05 s⁻¹
glucosamine-6-phosphate [3]
  self-cleavage kobs at 640 uM GlcN6P: < 1e-05 s⁻¹
glucosamine-6-phosphate [5]
  self-cleavage kobs at 160 uM GlcN6P: < 1e-05 s⁻¹

## G51U G63A
glucosamine-6-phosphate [1]
  kcat: < 1e-05 s⁻¹
glucosamine-6-phosphate [3]
  self-cleavage kobs at 640 uM GlcN6P: < 1e-05 s⁻¹
glucosamine-6-phosphate [4]
  self-cleavage kobs at 10000 uM GlcN6P: < 1e-05 s⁻¹

## A6U G32A C68U
glucosamine-6-phosphate [1]
  kcat: < 1e-05 s⁻¹
glucosamine-6-phosphate [2]
  self-cleavage kobs at 40 uM GlcN6P: < 1e-05 s⁻¹
glucosamine-6-phosphate [5]
  self-cleavage kobs at 160 uM GlcN6P: < 1e-05 s⁻¹

## C10U C58U
glucosamine-6-phosphate [1]
  kcat: < 1e-05 s⁻¹
glucosamine-6-phosphate [2]
  self-cleavage kobs at 40 uM GlcN6P: < 1e-05 s⁻¹
glucosamine-6-phosphate [3]
  self-cleavage kobs at 640 uM GlcN6P: < 1e-05 s⁻¹
glucosamine-6-phosphate [5]
  self-cleavage kobs at 160 uM GlcN6P: < 1e-05 s⁻¹
glucosamine-6-phosphate [6]
  self-cleavage kobs at 2500 uM GlcN6P: < 1e-05 s⁻¹

## C10U C67U
glucosamine-6-phosphate [1]
  kcat: < 1e-05 s⁻¹
glucosamine-6-phosphate [5]
  self-cleavage kobs at 160 uM GlcN6P: < 1e-05 s⁻¹

Source: the supplement of paper PMC7125110
